Results as given in PMC5908784, “Extracellular loops 2 and 3 of the calcitonin receptor selectively modify agonist binding and efficacy” (Biochemical Pharmacology, 2018).

Columns and labels:
Type in all cases: cell-based
hCTR I279A = target: T1, hCTR I279A (Homo sapiens, UniProt P30988, I279A); test: ERK1/2 phosphorylation; details: pERK, CV1-FlpIn cells, three-parameter logistic fit, mean ± S.E.M.
T1 construct: expressed in transfected cells
Description: (§1) Cells (2.5 × 10^4 cells/well) were seeded into 96-well culture plates and incubated overnight. […] Data were normalized to the maximal response elicited by 10% FBS determined at 6 min.
(§2) Data were corrected for radioligand occupancy using the Cheng-Prusoff equation in Prism; as such data are reported as pKi. Emax and EC50 were estimated from concentration-response curves using with a 3-parameter logistic equation in Prism (v7). These values are a composite of functional affinity, efficacy and stimulus response coupling. […] Significance was accepted at P < 0.05.

hCTR F356A = target: T2, hCTR F356A (Homo sapiens, UniProt P30988, F356A); test: ERK1/2 phosphorylation; details: pERK, CV1-FlpIn cells, three-parameter logistic fit, mean ± S.E.M.
T2 construct: c-Myc (N); expressed in transfected cells
Description: as §1, §2

hCTR V358A = target: T3, hCTR V358A (Homo sapiens, UniProt P30988, V358A); test: ERK1/2 phosphorylation; details: pERK, CV1-FlpIn cells, three-parameter logistic fit, mean ± S.E.M.
T3 construct: c-Myc (N); expressed in transfected cells
Description: as §1, §2

hCTR K366A [1] = target: T4, hCTR K366A (Homo sapiens, UniProt P30988, K366A); test: ERK1/2 phosphorylation; details: pERK, CV1-FlpIn cells, three-parameter logistic fit, mean ± S.E.M.
T4 construct: c-Myc (N); expressed in transfected cells
Description: as §1, §2

hCTR R362A = target: T5, hCTR R362A (Homo sapiens, UniProt P30988, R362A); test: ERK1/2 phosphorylation; details: pERK, CV1-FlpIn cells, three-parameter logistic fit, mean ± S.E.M.
T5 construct: expressed in transfected cells
Description: as §1, §2

hCTR Y284A = target: T6, hCTR Y284A (Homo sapiens, UniProt P30988, Y284A); test: ERK1/2 phosphorylation; details: pERK, CV1-FlpIn cells, three-parameter logistic fit, mean ± S.E.M.
T6 construct: expressed in transfected cells
Description: as §1, §2

hCTR L298A = target: T7, hCTR L298A (Homo sapiens, UniProt P30988, L298A); test: ERK1/2 phosphorylation; details: pERK, CV1-FlpIn cells, three-parameter logistic fit, mean ± S.E.M.
T7 construct: c-Myc (N); expressed in transfected cells
Description: as §1, §2

hCTR S364A = target: T8, hCTR S364A (Homo sapiens, UniProt P30988, S364A); test: ERK1/2 phosphorylation; details: pERK, CV1-FlpIn cells, three-parameter logistic fit, mean ± S.E.M.
T8 construct: c-Myc (N); expressed in transfected cells
Description: as §1, §2

hCTR F359A = target: T9, hCTR F359A (Homo sapiens, UniProt P30988, F359A); test: ERK1/2 phosphorylation
T9 construct: expressed in transfected cells
Description: as §1, §2

hCTR E294A [2] = target: T10, hCTR E294A (Homo sapiens, UniProt P30988, E294A); test: ERK1/2 phosphorylation
T10 construct: c-Myc (N); expressed in transfected cells
Description: as §1, §2

hCTR V293A = target: T11, hCTR V293A (Homo sapiens, UniProt P30988, V293A); test: ERK1/2 phosphorylation; details: pERK, CV1-FlpIn cells, three-parameter logistic fit, mean ± S.E.M.
T11 construct: c-Myc (N); expressed in transfected cells
Description: as §1, §2

hCTR V283A = target: T12, hCTR V283A (Homo sapiens, UniProt P30988, V283A); test: ERK1/2 phosphorylation; details: pERK, CV1-FlpIn cells, three-parameter logistic fit, mean ± S.E.M.
T12 construct: expressed in transfected cells
Description: as §1, §2

hCTR M376A = target: T13, hCTR M376A (Homo sapiens, UniProt P30988, M376A); test: ERK1/2 phosphorylation; details: pERK, CV1-FlpIn cells, three-parameter logistic fit, mean ± S.E.M.
T13 construct: c-Myc (N); expressed in transfected cells
Description: as §1, §2

hCTR Y374A = target: T14, hCTR Y374A (Homo sapiens, UniProt P30988, Y374A); test: ERK1/2 phosphorylation; details: pERK, CV1-FlpIn cells, three-parameter logistic fit, mean ± S.E.M.
T14 construct: c-Myc (N); expressed in transfected cells
Description: as §1, §2

hCTR N288A [3] = target: T15, hCTR N288A (Homo sapiens, UniProt P30988, N288A); test: ERK1/2 phosphorylation; details: pERK, CV1-FlpIn cells, three-parameter logistic fit, mean ± S.E.M.
T15 construct: expressed in transfected cells
Description: as §1, §2

hCTR W361A = target: T16, hCTR W361A (Homo sapiens, UniProt P30988, W361A); test: ERK1/2 phosphorylation
T16 construct: expressed in transfected cells
Description: as §1, §2

hCTR T280A = target: T17, hCTR T280A (Homo sapiens, UniProt P30988, T280A); test: ERK1/2 phosphorylation; details: pERK, CV1-FlpIn cells, three-parameter logistic fit, mean ± S.E.M.
T17 construct: expressed in transfected cells
Description: as §1, §2

hCTR H296A = target: T18, hCTR H296A (Homo sapiens, UniProt P30988, H296A); test: ERK1/2 phosphorylation; details: pERK, CV1-FlpIn cells, three-parameter logistic fit, mean ± S.E.M.
T18 construct: c-Myc (N); expressed in transfected cells
Description: as §1, §2

hCTR L291A = target: T19, hCTR L291A (Homo sapiens, UniProt P30988, L291A); test: ERK1/2 phosphorylation; details: pERK, CV1-FlpIn cells, three-parameter logistic fit, mean ± S.E.M.
T19 construct: expressed in transfected cells
Description: as §1, §2

hCTR T295A = target: T20, hCTR T295A (Homo sapiens, UniProt P30988, T295A); test: ERK1/2 phosphorylation; details: pERK, CV1-FlpIn cells, three-parameter logistic fit, mean ± S.E.M.
T20 construct: c-Myc (N); expressed in transfected cells
Description: as §1, §2

hCTR L368A [4] = target: T21, hCTR L368A (Homo sapiens, UniProt P30988, L368A); test: ERK1/2 phosphorylation; details: pERK, CV1-FlpIn cells, three-parameter logistic fit, mean ± S.E.M.
T21 construct: c-Myc (N); expressed in transfected cells
Description: as §1, §2

hCTR R281A = target: T22, hCTR R281A (Homo sapiens, UniProt P30988, R281A); test: ERK1/2 phosphorylation; details: pERK, CV1-FlpIn cells, three-parameter logistic fit, mean ± S.E.M.
T22 construct: expressed in transfected cells
Description: as §1, §2

hCTR F285A = target: T23, hCTR F285A (Homo sapiens, UniProt P30988, F285A); test: ERK1/2 phosphorylation; details: pERK, CV1-FlpIn cells, three-parameter logistic fit, mean ± S.E.M.
T23 construct: expressed in transfected cells
Description: as §1, §2

hCTR M367A = target: T24, hCTR M367A (Homo sapiens, UniProt P30988, M367A); test: ERK1/2 phosphorylation; details: pERK, CV1-FlpIn cells, three-parameter logistic fit, mean ± S.E.M.
T24 construct: c-Myc (N); expressed in transfected cells
Description: as §1, §2

hCTR K366A [5] = target: T4, hCTR K366A; test: cAMP accumulation; details: CV1-FlpIn cells, 30 min, IBMX, mean ± S.E.M.
Description: (§3) Cells (2.5 × 10^4 cells/well) were seeded into 96-well plates and incubated overnight. Cells were stimulated with increasing concentrations of ligands for 30 min in the presence of IBMX. The liquid was discarded, changed to absolute ethanol and volatilized to dryness at room temperature. […] Data were normalized to the response of 100 μM forskolin.
as §2

hCTR G369A = target: T25, hCTR G369A (Homo sapiens, UniProt P30988, G369A); test: cAMP accumulation; details: CV1-FlpIn cells, 30 min, IBMX, mean ± S.E.M.
T25 construct: c-Myc (N); expressed in transfected cells
Description: as §3, §2

hCTR E294A [6] = target: T10, hCTR E294A; test: cAMP accumulation; details: CV1-FlpIn cells, 30 min, IBMX, mean ± S.E.M.
Description: as §3, §2

hCTR V375A = target: T26, hCTR V375A (Homo sapiens, UniProt P30988, V375A); test: cAMP accumulation; details: CV1-FlpIn cells, 30 min, IBMX, mean ± S.E.M.
T26 construct: c-Myc (N); expressed in transfected cells
Description: as §3, §2

hCTR N288A [7] = target: T15, hCTR N288A; test: cAMP accumulation; details: CV1-FlpIn cells, 30 min, IBMX, mean ± S.E.M.
Description: as §3, §2

hCTR V357A = target: T27, hCTR V357A (Homo sapiens, UniProt P30988, V357A); test: cAMP accumulation; details: CV1-FlpIn cells, 30 min, IBMX, mean ± S.E.M.
T27 construct: c-Myc (N); expressed in transfected cells
Description: as §3, §2

hCTR L368A [8] = target: T21, hCTR L368A; test: cAMP accumulation; details: CV1-FlpIn cells, 30 min, IBMX, mean ± S.E.M.
Description: as §3, §2

hCTR P360A = target: T28, hCTR P360A (Homo sapiens, UniProt P30988, P360A); test: cAMP accumulation; details: CV1-FlpIn cells, 30 min, IBMX, mean ± S.E.M.
T28 construct: expressed in transfected cells
Description: as §3, §2

T21 sequence (P30988 25-474 L368A): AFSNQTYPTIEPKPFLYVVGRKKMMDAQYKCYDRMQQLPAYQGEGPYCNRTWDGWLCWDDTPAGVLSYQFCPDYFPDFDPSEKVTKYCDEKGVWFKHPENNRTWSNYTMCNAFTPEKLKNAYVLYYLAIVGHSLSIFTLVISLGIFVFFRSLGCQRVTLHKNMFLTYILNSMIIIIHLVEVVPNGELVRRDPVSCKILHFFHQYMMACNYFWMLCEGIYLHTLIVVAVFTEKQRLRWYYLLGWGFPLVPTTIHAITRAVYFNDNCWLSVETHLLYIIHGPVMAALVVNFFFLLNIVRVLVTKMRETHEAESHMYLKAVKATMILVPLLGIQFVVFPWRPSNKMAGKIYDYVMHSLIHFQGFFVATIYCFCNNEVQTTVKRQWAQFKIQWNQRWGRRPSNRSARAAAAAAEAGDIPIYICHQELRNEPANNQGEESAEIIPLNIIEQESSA
T15 sequence (P30988 25-474 N288A): as the sequence (P30988 25-474 L368A) above, with N264A, A344L counted along it
T4 sequence (P30988 25-474 K366A): as the sequence (P30988 25-474 L368A) above, with K342A, A344L counted along it
T10 sequence (P30988 25-474 E294A): as the sequence (P30988 25-474 L368A) above, with E270A, A344L counted along it
T28 sequence (P30988 25-474 P360A): as the sequence (P30988 25-474 L368A) above, with P336A, A344L counted along it
T6 sequence (P30988 25-474 Y284A): as the sequence (P30988 25-474 L368A) above, with Y260A, A344L counted along it
T19 sequence (P30988 25-474 L291A): as the sequence (P30988 25-474 L368A) above, with L267A, A344L counted along it
T7 sequence (P30988 25-474 L298A): as the sequence (P30988 25-474 L368A) above, with L274A, A344L counted along it
T20 sequence (P30988 25-474 T295A): as the sequence (P30988 25-474 L368A) above, with T271A, A344L counted along it
T14 sequence (P30988 25-474 Y374A): as the sequence (P30988 25-474 L368A) above, with A344L, Y350A counted along it
T11 sequence (P30988 25-474 V293A): as the sequence (P30988 25-474 L368A) above, with V269A, A344L counted along it
T22 sequence (P30988 25-474 R281A): as the sequence (P30988 25-474 L368A) above, with R257A, A344L counted along it
T3 sequence (P30988 25-474 V358A): as the sequence (P30988 25-474 L368A) above, with V334A, A344L counted along it
T5 sequence (P30988 25-474 R362A): as the sequence (P30988 25-474 L368A) above, with R338A, A344L counted along it
T27 sequence (P30988 25-474 V357A): as the sequence (P30988 25-474 L368A) above, with V333A, A344L counted along it
T12 sequence (P30988 25-474 V283A): as the sequence (P30988 25-474 L368A) above, with V259A, A344L counted along it
T18 sequence (P30988 25-474 H296A): as the sequence (P30988 25-474 L368A) above, with H272A, A344L counted along it
T23 sequence (P30988 25-474 F285A): as the sequence (P30988 25-474 L368A) above, with F261A, A344L counted along it
T2 sequence (P30988 25-474 F356A): as the sequence (P30988 25-474 L368A) above, with F332A, A344L counted along it
T13 sequence (P30988 25-474 M376A): as the sequence (P30988 25-474 L368A) above, with A344L, M352A counted along it
T1 sequence (P30988 25-474 I279A): as the sequence (P30988 25-474 L368A) above, with I255A, A344L counted along it
T25 sequence (P30988 25-474 G369A): as the sequence (P30988 25-474 L368A) above, with A344L, G345A counted along it
T16 sequence (P30988 25-474 W361A): as the sequence (P30988 25-474 L368A) above, with W337A, A344L counted along it
T26 sequence (P30988 25-474 V375A): as the sequence (P30988 25-474 L368A) above, with A344L, V351A counted along it
T24 sequence (P30988 25-474 M367A): as the sequence (P30988 25-474 L368A) above, with M343A, A344L counted along it
T8 sequence (P30988 25-474 S364A): as the sequence (P30988 25-474 L368A) above, with S340A, A344L counted along it
T9 sequence (P30988 25-474 F359A): as the sequence (P30988 25-474 L368A) above, with F335A, A344L counted along it
T17 sequence (P30988 25-474 T280A): as the sequence (P30988 25-474 L368A) above, with T256A, A344L counted along it

## CC(C)C[C@H](NC(=O)[C@H](CC(N)=O)NC(=O)[C@H](CC(N)=O)NC(=O)[C@H](CO)NC(=O)[C@H](CO)NC(=O)[C@H](CCCNC(=N)N)NC(=O)[C@@H](NC(=O)[C@H](CC(C)C)NC(=O)[C@H](Cc1ccccc1)NC(=O)[C@H](CC(N)=O)NC(=O)[C@H](C)NC(=O)[C@H](CC(C)C)NC(=O)[C@H](CCCNC(=N)N)NC(=O)[C@H](CCC(N)=O)NC(=O)[C@@H](NC(=O)[C@H](C)NC(=O)[C@@H]1CSSC[C@H](NC(=O)[C@@H](N)CCCCN)C(=O)N[C@@H](CC(N)=O)C(=O)N[C@@H]([C@@H](C)O)C(=O)N[C@@H](C)C(=O)N[C@@H]([C@@H](C)O)C(=O)N1)[C@@H](C)O)C(C)C)C(=O)NCC(=O)N1CCC[C@H]1C(=O)N[C@H](C(=O)N[C@@H](CC(C)C)C(=O)N1CCC[C@H]1C(=O)N1CCC[C@H]1C(=O)N[C@H](C(=O)N[C@@H](CC(N)=O)C(=O)N[C@H](C(=O)NCC(=O)N[C@@H](CO)C(=O)N[C@@H](CC(N)=O)C(=O)N[C@H](C(=O)N[C@@H](Cc1ccc(O)cc1)C(N)=O)[C@@H](C)O)C(C)C)[C@@H](C)O)C(C)C [rAmy]
hCTR I279A
  EC50: 18.2 nM
hCTR F356A
  EC50: 87.1 nM
hCTR V358A
  EC50: 58.9 nM
hCTR K366A [1]
  EC50: 12.9 nM
hCTR R362A
  EC50: 115 nM
hCTR Y284A
  EC50: 20.4 nM
hCTR L298A
  EC50: 20.4 nM
hCTR S364A
  EC50: 11.5 nM
hCTR F359A
  EC50: 60.3 nM
hCTR E294A [2]
  EC50: 37.2 nM
hCTR V293A
  EC50: 51.3 nM
hCTR V283A
  EC50: 17 nM
hCTR M376A
  EC50: 67.6 nM
hCTR Y374A
  EC50: 61.7 nM
hCTR N288A [3]
  EC50: 52.5 nM
hCTR W361A
  EC50: 57.5 nM
hCTR T280A
  EC50: 26.9 nM
hCTR H296A
  EC50: 33.9 nM
hCTR L291A
  EC50: 44.7 nM
hCTR T295A
  EC50: 44.7 nM
hCTR L368A [4]
  EC50: 27.5 nM
hCTR R281A
  EC50: 69.2 nM
hCTR F285A
  EC50: 21.9 nM
hCTR M367A
  EC50: 64.6 nM
hCTR K366A [5]
  EC50: 9.55 nM
hCTR G369A
  EC50: 14.8 nM
hCTR E294A [6]
  EC50: 12 nM
hCTR V375A
  EC50: 7.94 nM
hCTR N288A [7]
  EC50: 3.02 nM
hCTR V357A
  EC50: 20.4 nM
hCTR L368A [8]
  EC50: 11.7 nM
hCTR P360A
  EC50: 23.4 nM
